# Laboratory results as given in PubChem BioAssay AID588855 (National Center for Advancing Translational Sciences (NCATS), 2011).
# Where “and” joins values, the source holds several entries; their conditions need not be identical. Equal entries are not always repeated. Among all 410,000 compounds or so, about 5,000 (1.2%) were called active. Inconclusive means that the source gave no clear call. Such entries were picked first, then a sample of the others. The call rests on the fitted dose curve; in most records, active means well fitted inhibition curve with a large enough effect; inconclusive means small, poorly fitted or top-dose-only effect; inactive means no such curve, though single readings can be large or run the other way. Where the call is inconclusive, the potency comes from a doubtful curve fit.
# Assay: qHTS for Inhibitors of TGF-b; further: nearly all actives have a fitted effect of over 65% in size
# Details: HepG2 CAGA-GFP TGF-b/SMAD3 reporter, GFP fluorescence, 18 h, TGF-beta stimulated, 500 pg/mL final; series mostly up to 46.1 µM
# Summary of the method: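 Using HEPG2 CAGA-GFP reporter cells at 1000 cells/well, we pinned test compounds, stimulated with recombinant TGF-beta (500 pg/mL final) and measured total well GFP after 18 h.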
# Potency means the concentration at half of the fitted maximal effect; tags describe the fitted curve by direction and shape.
row,SMILES,Potency
1,Cc1ccc(C)c(NC(=O)CCc2nc(-c3ccc(C(C)(C)C)cc3)no2)c1,"inconclusive: 35.5 µM [inhibitor, single point]"
2,COc1cc2ncc(S(=O)(=O)c3ccccc3)c(N3CCCC(C)C3)c2cc1OC (stereo not given),"inconclusive: 35.5 µM [inhibitor, single point]"
3,O=C(NC(=S)N1CCN(c2c(Cl)cccc2[N+](=O)[O-])CC1)c1cccs1,"inconclusive: 25.1 µM [inhibitor, single point]"
4,COC(=O)c1nnn(CC(=O)Nc2cc(F)ccc2F)c1C(=O)OC,inactive
5,CC(C)(C)n1cnnc1Sc1ncccc1[N+](=O)[O-],inactive
6,CC(NCc1cccc(OCc2ccccc2)c1)C(O)c1ccccc1 (stereo not given),"inconclusive: 35.5 µM [inhibitor, single point]"
7,Cc1nn2c(=O)cc(COC(=O)c3cccc(NC(=O)COc4ccc(C)c(C)c4)c3)nc2s1,inactive
8,CCc1nc2ccc(C(=O)NCc3ccc(OC)cc3)cn2c1N(CC)Cc1cccc(Br)c1,"inconclusive: 14.1 µM [inhibitor, single point]"
9,OCc1cn(-c2ccccc2)nc1-c1ccc(-c2nn(-c3ccccc3)cc2CO)cc1,inactive
10,O=C(C1CCN(S(=O)(=O)c2cccs2)CC1)N1CCN(c2cccc(Cl)c2)CC1,"inconclusive: 2 µM [inhibitor, partial curve, poor fit]"
11,O=C(COC(=O)c1ccc(Br)cc1)NCc1ccccc1,"inconclusive: 0.562 µM [inhibitor, full curve]"
12,CCc1nc2c(OCc3ccc(C(F)(F)F)cc3)cccn2c1N(C)C(=O)c1ccc(OC)cc1,"inconclusive: 10 µM [inhibitor, single point]"
13,O=C(c1cccc(COc2ccc(Cl)cc2Cl)c1)N1CCN(c2ccccn2)CC1,"inconclusive: 31.6 µM [inhibitor, single point]"
14,O=C(OCCN(C1=NS(=O)(=O)c2ccccc21)c1ccccc1Cl)c1ccc(Cl)cc1,"inconclusive: 28.2 µM [inhibitor, single point]"
15,O=C(CCS(=O)(=O)c1ccccc1)Nc1nc(-c2ccccn2)cs1,"inconclusive: 35.5 µM [inhibitor, single point]"
16,Cc1cccc(C(=O)Oc2ccc(/C=N/NC(=O)c3ccccc3O)cc2)c1,"inconclusive: 15.8 µM [inhibitor, partial curve, poor fit]"
17,COc1ccccc1C(=O)NCCC(=O)N1CCN(C(C)=O)CC1,"inconclusive: 2.51 µM [inhibitor, partial curve]"
18,Oc1ccc(C[C@@H]2CNC(=S)N2CCc2cc(C(F)(F)F)cc(C(F)(F)F)c2)cc1,"inconclusive: 8.91 µM [inhibitor, partial curve, poor fit]"
19,CC1CC=CC2C1C(=O)N(Cc1ccccc1)C2c1ccoc1 (stereo not given),"inconclusive: 15.8 µM [inhibitor, single point]"
20,COc1cc(/C=N/O)ccc1OCc1ccccc1Cl,"inconclusive: 35.5 µM [inhibitor, single point]"
21,Cc1[nH]n(-c2ccccc2)c(=O)c1C(C[N+](=O)[O-])c1ccc(Br)cc1 (stereo not given),inactive
22,CCN(CC)S(=O)(=O)c1ccc2c(c1)c(=O)c(C(=O)N1CCN(c3ccccn3)CC1)cn2C,inactive

row,SMILES,Potency
1,Cc1cccc(C(=O)NCCNC(=O)c2cccc(C)c2)c1,inactive
2,CCCCSc1nnc(CCNC(=O)OC(C)(C)C)o1,"inconclusive: 10 µM [inhibitor, partial curve, poor fit]"
3,Cc1noc(C)c1C(=O)Nc1nc(-c2ccccc2Cl)cs1,"inconclusive: 12.6 µM [inhibitor, partial curve, poor fit]"
4,Cc1ccc(S(=O)(=O)Nc2cccc(C(=O)NCC(C)(C)N3CCOCC3)c2)cc1F,inactive
5,Cc1nc(-n2nc(C)c(Cc3ccccc3Cl)c2C)sc1C(=O)N1CCC(C)CC1,inactive
6,Cc1cccc(NC(=O)CSc2nnc(N)s2)c1,inactive
7,Cc1cccc(C)c1-n1nnnc1SCc1nc(N)nc(N(C)C)n1,active: 5.62 µM
8,O=C1NC(=S)S/C1=C/c1ccc(N2CCOCC2)o1,inactive
9,CC(C)(C)CC(C)(C)N=C1Nc2ccccc2NC12C[C@H]1CCC(=O)N3CC[C@@H](C2)[C@@H]13 (stereo not given in full),"inconclusive: 10 µM [inhibitor, partial curve, poor fit] and inconclusive: 35.5 µM [inhibitor, single point]"
10,O=C(CCCN1C(=O)c2cccc3cccc(c23)C1=O)NCc1ccco1,"inconclusive: 11.2 µM [inhibitor, partial curve]"
11,O=C(CN1CCC(Cc2ccccc2)CC1)NC(=O)NCc1ccccc1,"inconclusive: 35.5 µM [inhibitor, single point]"
12,Cc1cc(C=O)c(C)c2c1[nH]c1ccccc12,"inconclusive: 15.8 µM [inhibitor, single point]"
13,Cc1ccc(OCCSc2nc3ccc(NC(=O)c4ccc5c(c4)OCO5)cc3s2)cc1,inactive
14,Cc1ccc(S(=O)(=O)N(C)c2ccc(C(=O)NCC(c3ccccc3)N3CCCC3)cc2)cc1 (stereo not given),"inconclusive: 35.5 µM [inhibitor, single point]"
15,COc1cc(/C=N/NC(=S)NC2CC3CC2C2C=CCC32)ccc1O (stereo not given),"inconclusive: 14.1 µM [inhibitor, partial curve, poor fit]"
16,O=C(C[C@@H]1C/C=C\CCC(=O)OC[C@H](Cc2ccccc2)NC1=O)N[C@@H](CO)Cc1ccccc1,inactive
17,O=[N+]([O-])c1cccc2c(N3CCOCC3)ccnc12,"inconclusive: 35.5 µM [inhibitor, single point]"
18,O=C1CCc2ccc(OCCCCN3CCN(c4cccc(Cl)c4Cl)CC3)cc2N1,inactive
19,CC(C)(C)c1ccc(/C=N/Nc2nncn2N)cc1,inactive
20,COc1cc(/C=C2\COC/C(=C\c3ccc(O)c(OC)c3)C2=O)ccc1O,active: 6.31 µM
21,COc1ccc(F)c(CN2CCCC(CO)(Cc3cccc(Cl)c3)C2)c1 (stereo not given),"inconclusive: 22.4 µM [inhibitor, single point]"
22,COc1cccc(C(c2nnnn2Cc2ccco2)N2CCN(c3cccc(C)c3C)CC2)c1OC (stereo not given),"inconclusive: 12.6 µM [inhibitor, partial curve]"

row,SMILES,Potency
1,Cc1ccc(NC(=O)c2ccc(=O)n(CC(=O)Nc3c(C)cc(C)cc3C)n2)cc1,"inconclusive: 1 µM [inhibitor, full curve]"
2,Cc1ccc(COc2ccc3oc(-c4ccccc4)c(C(=O)O)c3c2)cc1,"inconclusive: 35.5 µM [inhibitor, single point]"
3,Cc1ccc(C)c(S(=O)(=O)N2CCN(C(=O)c3ccc(N4CCCC4)c([N+](=O)[O-])c3)CC2)c1,"inconclusive: 14.1 µM [inhibitor, single point]"
4,CCOc1ccccc1NC(=O)N(C)CCc1c(C)nn(CC)c1C,inactive
5,CCOC(=O)CN(c1cc([N+](=O)[O-])ccc1OC)S(C)(=O)=O,inactive
6,CC(C)OC(=O)/C(C#N)=C/c1cn(Cc2ccccc2)c2ccccc12,"inconclusive: 11.2 µM [inhibitor, partial curve]"
7,O=C(CP(=O)(CO)CO)c1ccc(Cl)cc1,"inconclusive: 3.55 µM [inhibitor, partial curve, poor fit]"
8,Cc1oc2ncnc(N3CCOCC3)c2c1C(=O)N1CCN(c2cccc(C(F)(F)F)c2)CC1,"inconclusive: 10 µM [inhibitor, partial curve, poor fit]"
9,O=C(NCc1cccnc1)c1ccc(Cl)c(S(=O)(=O)N2CCCCCC2)c1,"inconclusive: 35.5 µM [inhibitor, single point]"
10,Cc1ccc(S(=O)(=O)N(C(=O)c2ccncc2)c2ccc3oc4c(c3c2)CCCC4)cc1[N+](=O)[O-],"inconclusive: 35.5 µM [inhibitor, single point]"
11,CCN(C(=O)C1CCC(CNS(=O)(=O)c2cccc3nsnc23)CC1)c1cccc(C)c1 (stereo not given),"inconclusive: 15.8 µM [inhibitor, single point]"
12,CNCc1ccccc1Sc1ccc(O)c(O)c1,"inconclusive: 14.1 µM [inhibitor, single point]"
13,C=CCC1(CC=C)CCCN1C(=O)C1CCC(=O)N(CCc2ccc(OC)cc2)C1 (stereo not given),"inconclusive: 22.4 µM [inhibitor, partial curve, poor fit]"
14,C[C@@H]1CN([C@H](C)CO)S(=O)(=O)c2ccc(C#Cc3ccccc3)cc2O[C@@H]1CN(C)C(=O)CN(C)C,"inconclusive: 11.2 µM [inhibitor, single point]"
15,OC(CN1CCN(Cc2ccccc2)CC1)Cn1c2ccccc2c2ccccc21 (stereo not given),"inconclusive: 0.0891 µM [inhibitor, full curve, poor fit]"
16,CCN(CC)S(=O)(=O)c1cccc(C(=O)/C=C2/N(C)c3ccccc3C2(C)C)c1,inactive
17,COc1cccc(N2CCN(S(=O)(=O)c3ccc4c(c3)CC(C)N4C(=O)C3CC3)CC2)c1 (stereo not given),"inconclusive: 35.5 µM [inhibitor, single point]"
18,O=C(O)c1nn2c(C(F)(F)F)cc(-c3cccs3)nc2c1Cl,inactive
19,Cc1ccc(S(=O)(=O)N(CC(O)Cn2c3ccccc3c3ccccc32)c2cccc(C(=O)N(C)C)c2)cc1 (stereo not given),"inconclusive: 35.5 µM [inhibitor, single point]"
20,CCCCn1c(SCC(=O)c2ccccc2)nc2ccsc2c1=O,"inconclusive: 3.98 µM [inhibitor, full curve, poor fit]"
21,C#CCN1C(=O)C(O)(CC(=O)c2ccc(OC)c(OC)c2)c2cc(Br)ccc21 (stereo not given),"inconclusive: 1.12 µM [inhibitor, full curve, poor fit]"
